# The supplement of paper PMC8728848
# The other results are listed elsewhere or left out.
# B1: GH98CBM (Clostridium perfringens) (protein)
# chain: EVYALEESRDVYLSDLDWLNATHGDDTKSKIVQKNHPFTPGNNNQSTKISLKMEDGSISEFEKGLGTIAGSPSTITYDISGAGVTKFFSYLGIDRSANPINEQYAKVDKIEVVVDGKVIYSTINQFPNGLTYETPAIKVDLNIPENAKRLQLKSYAGEKTWGDEVVYADAKFTAKGDFVN
# Experiments:
# Experiment in all cases: glycan array binding signal (z-score within array); higher = stronger binding
# Details in all cases: glycan notation: IUPAC condensed, linker removed
# [1] = molecular target: GlcNAc(b1-6)Gal(b1-4)GlcNAc
# How it was run: (§1)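 Arrays were curated from the Consortium for Functional Glycomics database, 3228 in total, and kept only where the protein sequence was available. Binding is expressed as a within-array Z-score. This score was averaged across arrays of the same protein sequence at different concentrations or buffers and across linkers, and negative values can be read as non-binding.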
# GlcNAc(b1-6)GalNAc = molecular target: GlcNAc(b1-6)GalNAc
# How it was run: as §1
# GlcNAc3Prop(b1-4)GlcNAc = molecular target: GlcNAc3Prop(b1-4)GlcNAc
# How it was run: as §1
# Kdn(a2-3)Gal(b1-3)GlcNAc = molecular target: Kdn(a2-3)Gal(b1-3)GlcNAc
# How it was run: as §1
# Kdn(a2-3)Gal(b1-4)GlcNAc = molecular target: Kdn(a2-3)Gal(b1-4)GlcNAc
# How it was run: as §1
# [2] = molecular target: Man(a1-2)Man(a1-2)Man(a1-3)Man
# How it was run: as §1
# [3] = molecular target: Man(a1-2)Man(a1-2)Man(a1-6)[Man(a1-3)]Man
# How it was run: as §1
# Man(a1-2)Man(a1-3)Man = molecular target: Man(a1-2)Man(a1-3)Man
# How it was run: as §1
# [4] = molecular target: Man(a1-2)Man(a1-3)[Man(a1-2)Man(a1-6)]Man
# How it was run: as §1
# [5] = molecular target: Man(a1-2)Man(a1-3)[Man(a1-2)Man(a1-6)]Man(a1-6)[Man(a1-2)Man(a1-2)Man(a1-3)]Man
# How it was run: as §1
# [6] = molecular target: Man(a1-2)Man(a1-3)[Man(a1-2)Man(a1-6)]Man(a1-6)[Man(a1-2)Man(a1-2)Man(a1-3)]Man(b1-4)GlcNAc(b1-4)GlcNAc
# How it was run: as §1
# [7] = molecular target: Man(a1-2)Man(a1-3)[Man(a1-6)]Man(a1-6)[Man(a1-2)Man(a1-3)]Man(b1-4)GlcNAc(b1-4)GlcNAc
# How it was run: as §1
# [8] = molecular target: Man(a1-2)Man(a1-6)[Man(a1-3)]Man(a1-6)[Man(a1-2)Man(a1-2)Man(a1-3)]Man
# How it was run: as §1
# [9] = molecular target: Man(a1-2)Man(a1-6)[Man(a1-3)]Man(a1-6)[Man(a1-2)Man(a1-2)Man(a1-3)]Man(b1-4)GlcNAc(b1-4)GlcNAc
# How it was run: as §1
# Man(a1-3)[Man(a1-6)]Man = molecular target: Man(a1-3)[Man(a1-6)]Man
# How it was run: as §1
# [10] = molecular target: Man(a1-3)[Man(a1-6)]Man(a1-6)[Man(a1-2)Man(a1-3)]Man(b1-4)GlcNAc(b1-4)GlcNAc
# How it was run: as §1
# [11] = molecular target: Man(a1-3)[Man(a1-6)]Man(a1-6)[Man(a1-3)]Man
# How it was run: as §1
# [12] = molecular target: Man(a1-3)[Man(a1-6)]Man(a1-6)[Man(a1-3)]Man(b1-4)GlcNAc(b1-4)GlcNAc
# How it was run: as §1
# [13] = molecular target: Man(a1-3)[Man(a1-6)]Man(b1-4)GlcNAc(b1-4)GlcNAc
# How it was run: as §1
# Man(a1-6)Man = molecular target: Man(a1-6)Man
# How it was run: as §1
# Man(b1-4)GlcNAc = molecular target: Man(b1-4)GlcNAc
# How it was run: as §1
# Neu5Ac(a2-3)Gal = molecular target: Neu5Ac(a2-3)Gal
# How it was run: as §1
# [14] = molecular target: Neu5Ac(a2-3)Gal(b1-3)GalNAc
# How it was run: as §1
# [15] = molecular target: Neu5Ac(a2-3)Gal(b1-3)GalNAc(b1-3)Gal(a1-4)Gal(b1-4)Glc
# How it was run: as §1
# [16] = molecular target: Neu5Ac(a2-3)Gal(b1-3)GalNAc(b1-3)Gal(b1-4)GlcNAc
# How it was run: as §1
# [17] = molecular target: Neu5Ac(a2-3)Gal(b1-3)GalNAc(b1-4)[Neu5Ac(a2-3)]Gal(b1-4)Glc
# How it was run: as §1
# [18] = molecular target: Neu5Ac(a2-3)Gal(b1-3)GalNAc6S
# How it was run: as §1
# [19] = molecular target: Neu5Ac(a2-3)Gal(b1-3)GlcNAc
# How it was run: as §1
# [20] = molecular target: Neu5Ac(a2-3)Gal(b1-3)GlcNAc(b1-3)Gal(b1-3)GlcNAc
# How it was run: as §1
# [21] = molecular target: Neu5Ac(a2-3)Gal(b1-3)GlcNAc6S
# How it was run: as §1
# [22] = molecular target: Neu5Ac(a2-3)Gal(b1-3)[Fuc(a1-4)]GlcNAc
# How it was run: as §1
# [23] = molecular target: Neu5Ac(a2-3)Gal(b1-3)[Fuc(a1-4)]GlcNAc(b1-3)Gal(b1-4)[Fuc(a1-3)]GlcNAc
# How it was run: as §1
# [24] = molecular target: Neu5Ac(a2-3)Gal(b1-3)[Neu5Ac(a2-3)Gal(b1-4)]GlcNAc
# How it was run: as §1
# [25] = molecular target: Neu5Ac(a2-3)Gal(b1-3)[Neu5Ac(a2-6)]GalNAc
# How it was run: as §1
# Neu5Ac(a2-3)Gal(b1-4)Glc = molecular target: Neu5Ac(a2-3)Gal(b1-4)Glc
# How it was run: as §1
# [26] = molecular target: Neu5Ac(a2-3)Gal(b1-4)GlcNAc
# How it was run: as §1
# [27] = molecular target: Neu5Ac(a2-3)Gal(b1-4)GlcNAc(b1-2)Man(a1-3)[GlcNAc(b1-2)Man(b1-4)GlcNAc(b1-2)Man(a1-6)]Man(b1-4)GlcNAc(b1-4)GlcNAc
# How it was run: as §1
# [28] = molecular target: Neu5Ac(a2-3)Gal(b1-4)GlcNAc(b1-2)Man(a1-3)[Neu5Ac(a2-6)Gal(b1-4)GlcNAc(b1-2)Man(a1-6)]Man(b1-4)GlcNAc(b1-4)GlcNAc
# How it was run: as §1
# [29] = molecular target: Neu5Ac(a2-3)Gal(b1-4)GlcNAc(b1-3)Gal(b1-3)GlcNAc
# How it was run: as §1
# [30] = molecular target: Neu5Ac(a2-3)Gal(b1-4)GlcNAc(b1-3)Gal(b1-4)GlcNAc
# How it was run: as §1
# [31] = molecular target: Neu5Ac(a2-3)Gal(b1-4)GlcNAc(b1-3)Gal(b1-4)GlcNAc(b1-3)Gal(b1-4)GlcNAc
# How it was run: as §1
# [32] = molecular target: Neu5Ac(a2-3)Gal(b1-4)GlcNAc(b1-3)Gal(b1-4)[Fuc(a1-3)]GlcNAc
# How it was run: as §1
# [33] = molecular target: Neu5Ac(a2-3)Gal(b1-4)GlcNAc(b1-6)[Gal(b1-3)]GalNAc
# How it was run: as §1
# [34] = molecular target: Neu5Ac(a2-3)Gal(b1-4)GlcNAc(b1-6)[Neu5Ac(a2-3)Gal(b1-3)]GalNAc
# How it was run: as §1
# [35] = molecular target: Neu5Ac(a2-3)Gal(b1-4)GlcNAc6S
# How it was run: as §1
binder,measurement,setting,value
B1,glycan array binding signal (z-score),[1],-0.226
same,glycan array binding signal (z-score),GlcNAc(b1-6)GalNAc,-0.22
same,glycan array binding signal (z-score),GlcNAc3Prop(b1-4)GlcNAc,-0.189
same,glycan array binding signal (z-score),Kdn(a2-3)Gal(b1-3)GlcNAc,-0.208
same,glycan array binding signal (z-score),Kdn(a2-3)Gal(b1-4)GlcNAc,-0.306
same,glycan array binding signal (z-score),[2],-0.083
same,glycan array binding signal (z-score),[3],-0.06
same,glycan array binding signal (z-score),Man(a1-2)Man(a1-3)Man,-0.149
same,glycan array binding signal (z-score),[4],-0.215
same,glycan array binding signal (z-score),[5],-0.242
same,glycan array binding signal (z-score),[6],-0.089
same,glycan array binding signal (z-score),[7],-0.241
same,glycan array binding signal (z-score),[8],-0.245
same,glycan array binding signal (z-score),[9],-0.256
same,glycan array binding signal (z-score),Man(a1-3)[Man(a1-6)]Man,0.317
same,glycan array binding signal (z-score),[10],-0.255
same,glycan array binding signal (z-score),[11],-0.313
same,glycan array binding signal (z-score),[12],-0.155
same,glycan array binding signal (z-score),[13],-0.263
same,glycan array binding signal (z-score),Man(a1-6)Man,-0.126
same,glycan array binding signal (z-score),Man(b1-4)GlcNAc,-0.183
same,glycan array binding signal (z-score),Neu5Ac(a2-3)Gal,-0.141
same,glycan array binding signal (z-score),[14],-0.174
same,glycan array binding signal (z-score),[15],-0.252
same,glycan array binding signal (z-score),[16],-0.238
same,glycan array binding signal (z-score),[17],-0.223
same,glycan array binding signal (z-score),[18],-0.119
same,glycan array binding signal (z-score),[19],-0.244
same,glycan array binding signal (z-score),[20],-0.317
same,glycan array binding signal (z-score),[21],-0.128
same,glycan array binding signal (z-score),[22],-0.267
same,glycan array binding signal (z-score),[23],0.107
same,glycan array binding signal (z-score),[24],-0.275
same,glycan array binding signal (z-score),[25],-0.233
same,glycan array binding signal (z-score),Neu5Ac(a2-3)Gal(b1-4)Glc,-0.197
same,glycan array binding signal (z-score),[26],-0.237
same,glycan array binding signal (z-score),[27],0.017
same,glycan array binding signal (z-score),[28],-0.286
same,glycan array binding signal (z-score),[29],-0.244
same,glycan array binding signal (z-score),[30],-0.247
same,glycan array binding signal (z-score),[31],-0.186
same,glycan array binding signal (z-score),[32],-0.316
same,glycan array binding signal (z-score),[33],-0.113
same,glycan array binding signal (z-score),[34],-0.166
same,glycan array binding signal (z-score),[35],-0.228
